Laboratory results as given in PubChem BioAssay AID1461 (National Center for Advancing Translational Sciences (NCATS), 2008).
The campaign covered roughly 220,000 compounds. About 2,300 (1%) were called active. The inconclusive results got no clear call from the source; some entries with a clear call stand among them for comparison. Calls follow the shape of the dose curve; as a rule, active = well fitted inhibition curve with a large enough effect; inconclusive = small, poorly fitted or top-dose-only effect, or effect the other way; inactive = no such curve, though single readings can be large or run the other way. No potency is given beside an inconclusive call; the fits are too rough.

These molecules were tested against Neuropeptide S receptor (Homo sapiens) (UniProt Q6W5P4) (assay: qHTS Assay for Antagonists of the Neuropeptide S Receptor: cAMP Signal Transduction). Conditions: CHO-NPSR cells, cAMP TR-FRET, antagonist mode; activity change, negative = inhibition: at 38.3 µM (top of the series) unless noted.
UniProt Q6W5P4, sequence (Q6W5P4 whole entry, looked up): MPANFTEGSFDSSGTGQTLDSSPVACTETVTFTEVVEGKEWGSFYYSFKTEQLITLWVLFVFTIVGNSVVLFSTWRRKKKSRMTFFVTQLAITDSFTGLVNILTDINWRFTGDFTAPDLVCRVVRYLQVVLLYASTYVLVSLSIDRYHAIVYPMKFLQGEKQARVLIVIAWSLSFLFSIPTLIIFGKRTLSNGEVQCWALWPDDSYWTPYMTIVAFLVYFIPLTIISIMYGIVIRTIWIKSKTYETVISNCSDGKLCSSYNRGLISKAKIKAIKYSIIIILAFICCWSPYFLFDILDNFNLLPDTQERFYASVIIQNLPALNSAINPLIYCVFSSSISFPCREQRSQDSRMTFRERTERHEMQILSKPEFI
% is scaled to controls: 0 for no effect and ±100 for the full control effect; potency is read from the fitted curve at half-maximal effect; tags tell the direction and shape of the fitted curve.
Also: nearly all actives have a fitted effect of over 50% in size.

Row | SMILES | activity change, negative = inhibition | Potency
1 | O=C(Nc1cnccn1)c1csc2ccccc12 | inactive: 4.55% [at 46.1 µM] | 
2 | CC(=O)Nc1cccc(NC(=O)C2CCCN2C(=O)Nc2cccc(C)c2)c1 (stereo not given) |  | inconclusive [activator, single point]
3 | Cc1cc(S(=O)(=O)N(Cc2ccccc2)Cc2ccc(N(C)C)cc2)ccc1-n1cnnn1 | inactive: -27.7% | 
4 | Cc1csc(/N=C/c2ccc([N+](=O)[O-])cc2)n1 | inactive: 14.6% | 
5 | O=S(=O)(Nc1nc2ccccc2nc1Nc1cccc(S(=O)(=O)N2CCCCC2)c1)c1ccccc1 |  | inconclusive [inhibitor, single point]
6 | CCc1ccc(-c2nc(CN3CCC(C(=O)NCc4ccc(F)cc4)CC3)c(C)o2)cc1 |  | inconclusive [inhibitor, single point]
7 | O=C(c1ccc(F)cc1)N1CCN(c2ccc([N+](=O)[O-])c(N3CCCCC3)c2)CC1 |  | inconclusive [inhibitor, single point]
8 | CCN(CC)c1ccc(NC(=O)c2cnn(CC)c2)cc1 |  | inconclusive [inhibitor, partial curve]
9 | Cc1ccc(-c2nn(-c3ccccc3)cc2/C=N/NC(=O)c2ccc(Br)o2)cc1 |  | active: 7.94 µM
10 | S=c1[nH]nc(-c2cccc3ccccc23)n1-c1cccnc1 |  | inconclusive [inhibitor, single point]
11 | CCOC(=O)c1ccccc1NC(=O)Cn1c(-c2nonc2N)nc2ccccc21 |  | inconclusive [activator, full curve]
12 | O=C(c1ccccc1)c1ccc2c(c1)OCCOCCOCCO2 |  | inconclusive [activator, single point]
13 | Oc1[nH]c(=S)sc1C=C1N=c2ccccc2=N1 |  | inconclusive [activator, partial curve]
14 | COC(=O)c1[nH]c2cc(C)ccc2c1NC(=O)CN1CCCc2ccccc21 |  | inconclusive [inhibitor, single point]
15 | O=C(O)c1cccc(N2C(=O)C3C4C=CC(C4=C(c4ccccc4)c4ccccc4)C3C2=O)c1 (stereo not given) | inactive: -55.1% | 
16 | CCOC(=O)C1=C(N)n2c(s/c(=C\c3cccs3)c2=O)=C(C(=O)OCC)C1c1cccs1 (stereo not given) |  | inconclusive [activator, single point]
17 | CCOC(=O)c1cc2occc2n1CC(=O)N1CCCc2ccccc21 |  | inconclusive [inhibitor, single point]
18 | CC1CCN(CC[C@H]2CCCN2S(=O)(=O)c2cccc(O)c2)CC1 |  | inconclusive [inhibitor, partial curve, poor fit]
19 | CN(CC(=O)Nc1ccccc1Oc1ccccc1)Cc1ccccc1F |  | inconclusive [inhibitor, single point]
20 | CCN(CC)CCN(Cc1cc2cc3c(cc2[nH]c1=O)OCCO3)C(=O)NC1CCCCC1 | inactive: 3.8% [at 46.1 µM] | 
21 | Cc1ccc(CSc2sc(C(=O)c3ccccc3)c(N)c2C#N)cc1 | inactive: -28.1% [at 46.1 µM] | 
22 | CCOc1cc(C=O)ccc1OCC(=O)NC(C)(C)C | inactive: -5.49% | 
23 | Cc1cccc(N(CC(=O)NC2CCCCC2)C(=O)CCC(=O)Nc2ccccn2)c1 |  | inconclusive [inhibitor, single point]

Row | SMILES | activity change, negative = inhibition | Potency
24 | O=C1CSC(c2ccccc2)N1c1nc(-c2ccc(Cl)cc2Cl)cs1 (stereo not given) |  | inconclusive [inhibitor, full curve]
25 | Cc1cc(-n2c(C)cc(C(=O)CSc3nnc4sc5ccccc5n34)c2C)no1 |  | inconclusive [inhibitor, single point]
26 | OCCCc1nc2n(n1)C(c1cccs1)C=C(c1ccc(Br)cc1)N2 (stereo not given) |  | inconclusive [inhibitor, single point]
27 | CCN1/C(=C/c2ccc3cccc(C)c3[n+]2CC)Sc2ccccc21 |  | active: 10 µM
28 | CN(C)c1ccc(C=NCCC2(c3ccccc3)CCOC(C)(C)C2)cc1 (stereo not given) |  | inconclusive [activator, single point]
29 | COC(=O)Cc1[nH]nc2c1C1(C(=O)N(Cc3ccc(Cl)cc3)c3ccccc31)C(C#N)=C(N)O2 (stereo not given) | inactive: -4.84% [at 46.1 µM] | 
30 | CCC(CC)C(=O)Nc1cc(C)cc(C)c1 |  | inconclusive [inhibitor, single point]
31 | O=C(Nc1ccc(OC(F)F)cc1)Nc1cccc(C(F)(F)F)c1 |  | inconclusive [inhibitor, single point]
32 | CCOC(=O)C1CCCN(c2nc3ccccc3nc2C(C#N)C(=O)OCC)C1 (stereo not given) |  | inconclusive [inhibitor, partial curve]
33 | CCc1nnc(NS(=O)(=O)c2ccc(N/C=C\C(=O)c3ccc(F)cc3)cc2)s1 | inactive: -30.5% | 
34 | COc1ccc(C(=O)/C=C/c2ccc(O)cc2)cc1 | inactive: -13.1% | 
35 | CCc1cc(SC#N)cc(C)c1NC(=O)CCl | inactive: 26.1% | 
36 | CCOC(=O)Cn1c(=O)oc2cc(S(=O)(=O)Nc3cc(Cl)ccc3OC)ccc21 | inactive: -0.213% [at 46.1 µM] | 
37 | N#CC(=C=[N-])C1=C(C#N)C(c2ccccc2F)C([n+]2ccccc2)C(O)(C2CC2)N1 (stereo not given) |  | inconclusive [inhibitor, single point]
38 | COc1ccc(-c2csc(NC(=S)NC(=O)/C=C/c3ccco3)n2)cc1Br |  | inconclusive [activator, partial curve]
39 | CCc1c(C)nc2c(-c3ccccc3)c(C)nn2c1Nc1ccc(NC(C)=O)cc1 |  | inconclusive [activator, partial curve]
40 | Oc1c(N=Nc2ccccc2)sc2ccccc12 |  | inconclusive [inhibitor, single point]
41 | CC(C)(C)C(=O)/C(C#N)=C/c1cccs1 | inactive: 25.4% | 
42 | COc1ccc(-c2nc3ccccc3c(=O)n2CCOc2cc(C)ccc2C)cc1 | inactive: -6.69% | 
43 | COc1ccc(C(=O)NC(=S)Nc2cccc(Cl)c2N2CCOCC2)cc1[N+](=O)[O-] |  | inconclusive [inhibitor, partial curve]
44 | Cn1cccc1Cc1nnc(SCC(=O)Nc2cccc(F)c2)n1CCc1ccccc1 | inactive: -37.8% | 
45 | COc1ccc(-c2ccc(SCC(=O)Nc3nccs3)nn2)cc1OC |  | inconclusive [inhibitor, single point]
